From the supplement of paper PMC3334620
Whole data set: some 33,000 sequences, median “E-score (-0.5 to 0.5)” near -0.021, cut for the highest 2% near 0.32. This is one part of the list.

These sequences were tested against T1, Zap1 (UniProt P47043) (assay: PBM E-score (8-mer binding enrichment) (E-score (-0.5 to 0.5)); higher = stronger / more preferred TF binding; most listed sequences are background and not binding sites). Settings: protein concentration: 200 nM; construct: GST-full length.
T1 sequence: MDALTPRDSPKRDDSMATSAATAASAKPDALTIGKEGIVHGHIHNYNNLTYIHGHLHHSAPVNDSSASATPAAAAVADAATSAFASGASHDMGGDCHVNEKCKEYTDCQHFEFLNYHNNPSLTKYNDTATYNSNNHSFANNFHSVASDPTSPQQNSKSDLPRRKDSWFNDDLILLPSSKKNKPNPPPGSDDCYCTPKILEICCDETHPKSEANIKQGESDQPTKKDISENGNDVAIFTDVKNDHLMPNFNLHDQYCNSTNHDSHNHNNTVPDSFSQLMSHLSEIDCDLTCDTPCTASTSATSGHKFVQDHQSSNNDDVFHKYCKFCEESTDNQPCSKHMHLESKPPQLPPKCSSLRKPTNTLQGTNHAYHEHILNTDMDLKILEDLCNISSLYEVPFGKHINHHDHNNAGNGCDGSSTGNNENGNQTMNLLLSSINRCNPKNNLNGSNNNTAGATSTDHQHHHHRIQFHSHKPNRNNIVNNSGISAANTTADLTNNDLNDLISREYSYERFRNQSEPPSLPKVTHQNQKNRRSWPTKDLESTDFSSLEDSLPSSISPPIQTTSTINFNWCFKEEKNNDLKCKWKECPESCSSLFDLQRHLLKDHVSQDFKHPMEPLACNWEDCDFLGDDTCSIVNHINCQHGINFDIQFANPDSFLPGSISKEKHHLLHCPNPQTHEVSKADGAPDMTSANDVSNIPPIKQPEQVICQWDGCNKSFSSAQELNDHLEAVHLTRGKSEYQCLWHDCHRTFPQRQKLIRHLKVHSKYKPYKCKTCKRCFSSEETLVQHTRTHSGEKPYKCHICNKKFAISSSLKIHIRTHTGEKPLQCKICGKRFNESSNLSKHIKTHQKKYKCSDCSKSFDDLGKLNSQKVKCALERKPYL
Protocol: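 Universal 'all 10-mer' protein binding microarrays (Agilent AMADID 015681) probed with GST-tagged S. cerevisiae TFs (full-length or DBD) made by in vitro transcription/translation (PURExpress), about 100-200 nM. Bound TF was detected with fluorescent anti-GST. Each ungapped 8-mer (which stands for itself and its reverse complement) is scored by the PBM enrichment score (E-score), a modified Wilcoxon-Mann-Whitney statistic from -0.5 to +0.5, computed with the Universal PBM Analysis Suite. Scale: above 0.35 generally sequence-specific binding.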

Sequence | PBM E-score
AATACACA | 0.0887
CCCTCCGC | 0.0365
ATGTGGAA | -0.0654
GGAATAAC | 0.288
CTGGTTAA | 0.225
CCTCTTAG | 0.203
TAGTTTGA | 0.17
CTCGTACA | -0.116
GCTGGGCC | -0.259
CGGGAATC | -0.119
TATTCACA | 0.195
CACTCGCG | -0.039
CTATCCCA | -0.0465
ACCTATGG | 0.129
GAGAAACC | 0.176
AGTAATTA | -0.00369
CCTCCTTA | -0.0275
AGACGAGG | -0.284
ACGTGTGA | -0.105
ATCGCGTA | -0.0361
TAAACGTA | -0.0228
AACTCTTC | -0.183
ACTGTTCG | 0.0928
ATAACGCC | 0.11

Sequence | PBM E-score
AACCGGTG | -0.0964
TAGGACCA | 0.122
CGTGCGAC | -0.188
CATCCAAA | -0.098
CACTTCGG | -0.103
GGTTCTCA | 0.278
ATTATATG | 0.184
AGTGGCAG | -0.0623
CCCCGTAG | 0.0246
CTCAATGA | 0.0234
TGCGAAAA | 0.233
CCTCACGA | 0.00143
AGCAAAGC | -0.222
TAACATTA | 0.0401
ATAATTCC | 0.0413
GTCCGGGA | 0.0602
ACCTACCC | 0.316
CCAATATC | 0.0316
ATCTCACA | 0.108
GAAAAGTC | -0.0851
AAGAGAGG | -0.107
TACATGGA | -0.148
AAATGTTG | -0.21
AGAATGCT | -0.0551

Sequence | PBM E-score
CCAGCCAC | 0.0551
ATGAAACG | -0.0893
GAGCCTAC | -0.0707
CCCCGTAA | 0.16
ATTATTGA | 0.0512
AGTAGTTC | 0.0602
AGGGTTGC | 0.46
CACAGGAC | -0.216
CAAGCGCC | -0.307
AAATCGAT | 0.0994
ACTTTAGG | -0.00467
ACCTAGAG | 0.141
GTCGGGCA | -0.136
GGCGCTAA | -0.199
GACTCCGC | -0.304
CCTCTCAG | -0.207
CTTTGCAA | 0.187
ACCCGTTG | 0.193
ACCGGAAC | 0.0106
AGACGTTG | -0.229
ATATGATA | 0.348
GGGAGGTA | -0.078
GCACGGCA | -0.138
AAATTCCA | 0.142

Sequence | PBM E-score
TCAGAGCA | -0.192
GACTTAAC | -0.0451
ACAACAAC | 0.226
ACTCAAAT | -0.0384
ACGCTGTG | 0.0173
AATTAATA | 0.332
ATAATATA | 0.183
ATCACGTG | -0.012
GAGTGCGC | -0.0805
CGCTCCAG | -0.129
AGACACCC | 0.172
AATCAAGC | -0.0841
CAACTTAC | 0.043
AGGTGTCG | -0.0687
CTGGCCCA | -0.095
CATCAGGA | 0.0932
AGCCGCTA | -0.243
TCGTGCAA | 0.127
CGCATGAC | -0.00046
GAGGGTGC | 0.138
AAGTTGAT | -0.14
CCGGCTTC | -0.213
